According to the supplement of paper PMC4604168 (melanoma cell lines):
The list shows a part of the results. Repeats are few or missing, and single values can be far off.

Columns and labels:
Test in all cases: cell count relative to DMSO control; melanoma cells; higher = more viable cells
Conditions in all cases: library dose: standard library concentration; 72 h
G361 = tested on: G361
IPC-298 = tested on: IPC-298
IST-MEL1 = tested on: IST-MEL1
LB2518-MEL = tested on: LB2518-MEL
LOXIMVI = tested on: LOXIMVI
MEL-HO = tested on: MEL-HO
MZ2-MEL = tested on: MZ2-MEL
MeWo = tested on: MeWo
RPMI7951 = tested on: RPMI7951
RVH-421 = tested on: RVH-421
SkMel28 = tested on: SkMel28
SkMel2 = tested on: SkMel2
SkMel30 = tested on: SkMel30
SkMel5 = tested on: SkMel5
UACC257 = tested on: UACC257
UACC62 = tested on: UACC62
WM115 = tested on: WM115
WM1716 = tested on: WM1716
WM1745 = tested on: WM1745
WM3526 = tested on: WM3526
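Further: cells treated in 1,536-well plates, then fixed and DAPI-stained, with nuclei counted from automated high-throughput microscope images.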

Structure (SMILES): COc1ccc2c(c1)CCC1C2CCC2(C)C(NCCCCCCN3C(=O)C=CC3=O)CCC12 (stereo not given) + O=C(Oc1ccc([N+](=O)[O-])cc1)N1CCC(C(O)(c2ccc3c(c2)OCO3)c2ccc3c(c2)OCO3)CC1 [JZL184] (first compound 2 µM, partner dose 5 µM)
- cell count (G361): 89.2%
- cell count (IPC-298): 101%
- cell count (IST-MEL1): 95.5%
- cell count (LB2518-MEL): 91.2%
- cell count (LOXIMVI): 91.1%
- cell count (MEL-HO): 89.8%
- cell count (MZ2-MEL): 103%
- cell count (MeWo): 65.4%
- cell count (RPMI7951): 44.5%
- cell count (RVH-421): 107%
- cell count (SkMel28): 132%
- cell count (SkMel2): 97.2%
- cell count (SkMel30): 109%
- cell count (SkMel5): 77.3%
- cell count (UACC257): 88.2%
- cell count (UACC62): 80%
- cell count (WM115): 96.2%
- cell count (WM1716): 71.5%
- cell count (WM1745): 71.4%
- cell count (WM3526): 79.7%

Structure (SMILES): C[C@]1(c2nc3c(C(N)=O)cccc3[nH]2)CCCN1 [Veliparib] + C/C(O)=C(\C#N)C(=O)Nc1cc(Br)ccc1Br [LFM-A13] (first compound 7 µM, partner dose 10 µM)
- cell count (G361): 102%
- cell count (IPC-298): 89%
- cell count (IST-MEL1): 95.7%
- cell count (LB2518-MEL): 92.8%
- cell count (LOXIMVI): 111%
- cell count (MEL-HO): 80.7%
- cell count (MZ2-MEL): 88.7%
- cell count (MeWo): 121%
- cell count (RPMI7951): 153%
- cell count (RVH-421): 73.5%
- cell count (SkMel28): 69.1%
- cell count (SkMel2): 87.9%
- cell count (SkMel30): 82.6%
- cell count (SkMel5): 77.8%
- cell count (UACC257): 93.6%
- cell count (UACC62): 80.8%
- cell count (WM115): 79.3%
- cell count (WM1716): 100%
- cell count (WM1745): 134%
- cell count (WM3526): 101%

Structure (SMILES): C/C(O)=C(\C#N)C(=O)Nc1cc(Br)ccc1Br + Oc1nc(-c2ccc(C(F)(F)F)cc2)nc2c1CSCC2 [XAV939] (first compound 10 µM, partner dose 10 µM)
- cell count (G361): 101%
- cell count (IPC-298): 98.7%
- cell count (IST-MEL1): 97.4%
- cell count (LB2518-MEL): 113%
- cell count (LOXIMVI): 301%
- cell count (MEL-HO): 88.4%
- cell count (MZ2-MEL): 85.5%
- cell count (MeWo): 111%
- cell count (RPMI7951): 91.7%
- cell count (RVH-421): 324%
- cell count (SkMel28): 97.7%
- cell count (SkMel2): 107%
- cell count (SkMel30): 83.8%
- cell count (SkMel5): 119%
- cell count (UACC257): 87.4%
- cell count (UACC62): 101%
- cell count (WM115): 118%
- cell count (WM1716): 86.7%
- cell count (WM1745): 94.7%
- cell count (WM3526): 133%
